Experimental data as given in the supplement of paper PMC8792480.
The other results are listed elsewhere or left out. Most values come without repeats; read them as rough.

Tested on: A549
Experiment: cell-surface PD-L1 MFI ratio relative to radiation alone (isotype-subtracted); higher = higher PD-L1 surface expression
Details: inducer: radiation 8 Gy; 10 µM; 24 h
Experimental: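 A549 and H460 NSCLC cells were treated with each library drug at 10 uM, then with radiation (8 Gy) or cisplatin (4 uM), and incubated for 24 h. Cell-surface PD-L1 was measured by flow cytometry as an MFI ratio: (MFI drug+inducer - MFI isotype)/(MFI inducer alone - MFI isotype). Hits were defined as ratio < 0.75.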
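Also: surface PD-L1 on NSCLC cells stained with a PE-labelled anti-human PD-L1 antibody before flow cytometry, screening a library of roughly two hundred mostly kinase and epigenetic inhibitors.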

cell-surface PD-L1 MFI ratio, inactive:
CN(C)C/C=C/C(=O)Nc1ccc(C(=O)Nc2cccc(Nc3ncc(Cl)c(-c4c[nH]c5ccccc45)n3)c2)cc1 1.79
N[C@@H]1CCCN(c2c(/C=C3\SC(=O)NC3=O)cccc2-c2ccccc2)C1 1.1
COc1ccc(-c2cc3nccn3c(Nc3ncccc3C(N)=O)n2)cc1OC 0.83
CCS(=O)(=O)N1CC(CC#N)(n2cc(-c3ncnc4[nH]ccc34)cn2)C1 0.79
COc1ccc2c(c1)[C@]1(C[C@H]1c1ccc3c(/C=C/c4ccc(CN5C[C@@H](C)O[C@@H](C)C5)cc4)n[nH]c3c1)C(=O)N2 1.07
Cc1nc(Nc2ncc(C(=O)Nc3c(C)cccc3Cl)s2)cc(N2CCN(CCO)CC2)n1 [Dasatinib] 0.797
COc1ccc(C2CC(c3ccccc3)=NN2c2ccc(S(N)(=O)=O)cc2)cc1 (stereo not given) 0.84
C[C@@H](N)[C@H]1CC[C@H](C(=O)Nc2ccncc2)CC1 0.836
Cc1cc(F)c(C(=O)Nc2cccc(-c3nncn3C(C)C)n2)cc1-n1cnc(C2CC2)c1 [Selonsertib (GS-4997)] 1.1
COc1ccc(N2C(=O)/C(=C\c3ccc([N+](=O)[O-])s3)SC2=S)cc1 2.99
CCN(CC)CCNC(=O)c1c(C)[nH]c(/C=C2\C(=O)Nc3ccc(F)cc32)c1C [Sunitinib] 48.9
COc1ccc(S(=O)(=O)N(CCO)c2ccccc2CN(C)C/C=C/c2ccc(Cl)cc2)cc1 [KN-93 Phosphate] 0.942
Nc1nc(F)nc2c1ncn2[C@@H]1O[C@H](CO)[C@@H](O)[C@@H]1O [Fludarabine] 0.861
COc1cc(Nc2ncc3c(n2)-c2ccc(Cl)cc2C(c2c(F)cccc2OC)=NC3)ccc1C(=O)O [Alisertib (MLN8237)] 0.83
CCCCCCCCc1ccc(CCC(N)(CO)CO)cc1 [Fingolimod] 0.876
Cc1nc(Nc2n[nH]c3c2CN(C(=O)N[C@H](CN(C)C)c2ccccc2)C3(C)C)c2sccc2n1 1.09
Cc1cccc(CC(=O)N2CCc3c2ccc(-c2cn(C)c4ncnc(N)c24)c3F)n1 0.918
N#CC[C@H](C1CCCC1)n1cc(-c2ncnc3[nH]ccc23)cn1 1.38
COc1cc2nc(N3CCCN(C)CC3)nc(NC3CCN(Cc4ccccc4)CC3)c2cc1OC 1.78
Nc1cccc(-c2cc3c(Oc4cccc(O)c4)ncnc3[nH]2)c1 0.803
CC(=O)Nc1cccc(-n2c(=O)n(C3CC3)c(=O)c3c(Nc4ccc(I)cc4F)n(C)c(=O)c(C)c32)c1 1.58
Clc1ccc(NN=C(c2ccccc2)c2ccccn2)nc1 1.55
O=C(O)CCCc1cc2cc(Cl)ccc2n1S(=O)(=O)c1ccc2ncsc2c1 [Lanifibranor(IVA-337)] 1.14
CC(=O)c1cnc2ccc(-c3cc(Cl)c(O)c(Cl)c3)nc2c1N[C@H]1CC[C@H](CN(C)C)CC1 2.21
O=C(c1ccc(Nc2nccc(-c3cc4ccccc4s3)n2)cc1)N1CCC(N2CCCC2)CC1 [IKK-16 (IKK Inhibitor VII)] 1.52
Cc1[nH]c2ccc(F)cc2c1-c1nc2c3cccnc3c3ncccc3c2[nH]1 1.51
Nc1ccccc1NC(=O)c1ccc(CNC(=O)OCc2cccnc2)cc1 [Entinostat (MS-275)] 1.61
Cc1[nH]c(/C=C2\C(=O)Nc3ccccc32)c(C)c1CCC(=O)O [Orantinib (TSU-68, SU6668)] 1.08
C=CC(=O)N1CCC([C@@H]2CCNc3c(C(N)=O)c(-c4ccc(Oc5ccccc5)cc4)nn32)CC1 [Zanubrutinib] 1.12
Cc1ccc(S(=O)(=O)OCC(=O)Nc2ccc(C(=O)O)c(O)c2)cc1 1.17
O=C(c1cc(Cc2n[nH]c(=O)c3ccccc23)ccc1F)N1CCN(C(=O)C2CC2)CC1 [Olaparib] 1.25
Cc1ccc(C(=O)Nc2cccc(C(F)(F)F)c2)cc1Nc1nc(-c2cccnc2)nc2c1cnn2C 0.84

cell-surface PD-L1 MFI ratio, active:
CNC(=O)c1cc(Oc2ccc3nc(N[C@@H]4CCCC[C@H]4O)sc3c2)ccn1 0.675
CCCCCCCCCCCCCC(=S)NCCCC[C@H](NC(=O)OCc1ccccc1)C(=O)Nc1ccccc1 [Thiomyristoyl] 0.749
NC(=O)C1CCCc2c1[nH]c1ccc(Cl)cc21 (stereo not given) [Selisistat (EX 527)] 0.654
C[C@H](NC(=O)c1c(N)nn2cccnc12)c1cc2cccc(C#Cc3cnn(C)c3)c2c(=O)n1-c1ccccc1 0.73
CC(C)N(C[C@H]1O[C@@H](n2cnc3c(N)ncnc32)[C@H](O)[C@@H]1O)[C@H]1C[C@@H](CCc2nc3cc(C(C)(C)C)ccc3[nH]2)C1 [Pinometostat (EPZ5676)] 0.63
O=C(/C=C/N1C[C@H]2C[C@@H]1CN2c1ccccn1)c1ccccc1O 0.73
CCOC(=O)C1=C(C)NC(=S)NC1c1cccc(O)c1 (stereo not given) [Monastrol] 0.657
CC(=O)O[C@H]1C(=O)[C@@]2(C)[C@H]([C@H](OC(=O)c3ccccc3)[C@]3(O)C[C@H](OC(=O)[C@H](O)[C@@H](NC(=O)c4ccccc4)c4ccccc4)C(C)=C1C3(C)C)[C@]1(OC(C)=O)CO[C@@H]1C[C@@H]2O [Paclitaxel] 0.655
